Measured values from the supplement of paper PMC11880418.
Counter-ions that a name gives are not always drawn. Some of the results follow. The data scatter; read single values as rough.

How the values were obtained:
Test in all cases: ALDHbr (CSC) cell proportion score relative to DMSO vehicle (ratio to DMSO); breast (SUM159) / gastric (MKN45) / pancreatic (PANC1) / colon cancer lines; ALDHbr cells have high ALDH activity and are rich in cancer stem cells (CSC); higher = more CSC (ALDHbr) cells remaining
Details in all cases: 10 µM; 72 h
[1] = tested on: MKN45
[2] = tested on: PANC1
[3] = tested on: SUM159
[4] = tested on: T84
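Also: High-content imaging of ALDEFLUOR-stained cells with Hoechst-labelled nuclei in 384-well plates, triplicate wells, scored as Z-score against 0.1% DMSO vehicle, negative meaning fewer ALDHbr cells.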

Row | SMILES | ALDHbr [1] | ALDHbr [2] | ALDHbr [3] | ALDHbr [4]
1 | CC(C)c1nc(CN(C)C(=O)N[C@H](C(=O)N[C@@H](Cc2ccccc2)C[C@H](O)[C@H](Cc2ccccc2)NC(=O)OCc2cncs2)C(C)C)cs1 [Ritonavir] | 0.182 | 0.532 | 0.254 | 0.627
2 | CN(C)CCCN1c2ccccc2Sc2ccccc21 [Promazine hydrochloride] | 0.991 | 1.01 | 0.905 | 0.901
3 | CN[C@@H]1[C@H](O[C@H]2[C@H](O[C@H]3[C@H](O)[C@@H](O)[C@H](N=C(N)N)[C@@H](O)[C@@H]3N=C(N)N)O[C@@H](C)[C@]2(O)C=O)O[C@@H](CO)[C@H](O)[C@H]1O [Streptomycin sulfate] | 1.02 | 0.81 | 1.37 | 1.07
4 | CN(C)CCOC(=O)COc1ccc(Cl)cc1 [Meclofenoxate hydrochloride] | 0.865 | 1.07 | 1.24 | 0.925
5 | CN(C)CCCN1c2ccccc2CCc2ccc(Cl)cc21 [Clomipramine hydrochloride] | 0.99 | 1.01 | 0.781 | 0.821
6 | Oc1c(I)cc(Cl)c2cccnc12 [Clioquinol] | 0.159 | 1.81 | 1.02 | 1.01
7 | O=C(CCCN1CCC(O)(c2ccc(Cl)cc2)CC1)c1ccc(F)cc1 [Haloperidol] | 0.969 | 0.684 | 0.799 | 0.784
8 | N=C(N)NC(=O)c1nc(Cl)c(N)nc1N [Amiloride hydrochloride dihydrate] | 1.09 | 0.793 | 1.02 | 0.925
9 | C#C[C@]1(O)CC[C@H]2[C@@H]3CCc4cc(O)ccc4[C@H]3CC[C@@]21C [Ethinylestradiol] | 0.986 | 1.08 | 1.19 | 0.839
10 | CC(=O)c1ccc(S(=O)(=O)NC(=O)NC2CCCCC2)cc1 [Acetohexamide] | 0.886 | 0.858 | 1.13 | 0.86
11 | CC(=O)/N=c1/sc(S(N)(=O)=O)nn1C [Methazolamide] | 0.81 | 1.04 | 1.15 | 1.15
12 | O=C(Oc1cccc2cccnc12)c1ccccc1 [Benzoxiquine] | 1.17 | 1.11 | 0 | 0.329
13 | NNC(=O)c1ccncc1 [Isoniazid] | 0.965 | 0.753 | 1.13 | 0.927
14 | CC(C)NCC(O)COc1ccc(CCOCC2CC2)cc1 (stereo not given) [Betaxolol hydrochloride] | 0.962 | 0.893 | 0.864 | 1.06
15 | O=C(CCCN1CC=C(n2c(=O)[nH]c3ccccc32)CC1)c1ccc(F)cc1 [Droperidol] | 0.735 | 0.717 | 0.875 | 0.792
16 | C[C@]12C[C@H](O)[C@H]3[C@@H](CCC4=CC(=O)CC[C@@]43C)[C@@H]1CC[C@@H]2C(=O)CO [Corticosterone] | 0.992 | 0.711 | 0.768 | 1.02
17 | C=C1/C(=C\C=C2/CCC[C@]3(C)[C@@H]([C@H](C)CCCC(C)C)CC[C@@H]23)C[C@@H](O)C[C@@H]1O [Alfacalcidol] | 1.36 | 1.11 | 1.85 | 0.711
18 | CC(C(=O)O)c1ccc2c(c1)Cc1cccnc1O2 (stereo not given) [Pranoprofen] | 1.04 | 0.707 | 1.12 | 1.08
19 | CN1CCN(C2=Nc3ccccc3Oc3ccc(Cl)cc32)CC1 [Loxapine succinate] | 1.03 | 0.876 | 0.737 | 0.801
20 | CN1CCN(C(c2ccccc2)c2ccc(Cl)cc2)CC1 (stereo not given) [Chlorcyclizine hydrochloride] | 1.18 | 0.991 | 0.912 | 0.653
21 | CN1CCN2c3ncccc3Cc3ccccc3C2C1 (stereo not given) [Mirtazapine] | 1.12 | 0.981 | 1.03 | 0.999
22 | C/C(=C\C(=O)OCCCCCCCCC(=O)O)C[C@@H]1OC[C@H](C[C@@H]2O[C@H]2[C@@H](C)[C@H](C)O)[C@@H](O)[C@H]1O [Mupirocin] | 1.04 | 0.54 | 1.1 | 0.818
23 | C=C1c2c(Cl)ccc(O)c2C(O)=C2C(=O)[C@]3(O)C(O)=C(C(N)=O)C(=O)[C@@H](N(C)C)[C@@H]3[C@@H](O)[C@H]12.O=C(O)c1cc(S(=O)(=O)O)ccc1O [Meclocycline sulfosalicylate] | 0.314 | 0.401 | 0.198 | 0.769
24 | CC(C)NCC(O)c1ccc(O)c(O)c1 (single isomer, unassigned; (-)) [(-)-Isoproterenol hydrochloride] | 0.99 | 0.852 | 2.18 | 0.946
25 | COCC(=O)Nc1c(I)c(C(=O)NCC(O)CO)c(I)c(C(=O)N(C)CC(O)CO)c1I (stereo not given) [Iopromide] | 0.948 | 1.02 | 1.16 | 0.992
